According to article PMC12136788:
The list shows a part of the results.

T1: UNK ZnF1-3 (human, UniProt Q9C0B0 31-174)
T1 sequence: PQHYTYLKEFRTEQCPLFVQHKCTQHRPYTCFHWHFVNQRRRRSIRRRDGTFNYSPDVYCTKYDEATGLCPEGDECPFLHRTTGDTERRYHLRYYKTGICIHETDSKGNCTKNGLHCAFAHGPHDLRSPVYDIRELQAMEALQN

B1: chr5:138658563:138658564:+_ENSG00000015479_ENST00000502499|hu_mus|motif|central (ssRNA)
RNA: GGGAGUUCUACAGUCCGACGAUCAUCUUUUUUCACAGCUUUAUCUGAAGGCUCCUUUUUCCCAUCAGAAGAUACAUCCCCGGAAUUAGCAAGAUCGGUCUCAUCGCCCACUGAACUACCACUUUCUAGUAGUGCUGCAGCUUCCAACAGAGGAUUGAGCAUCA
B2: 120672017_120672256_5933_CDS_ENSMUSG00000025153_ENSMUST00000055655|mouse|control|control (ssRNA)
RNA: GGGAGUUCUACAGUCCGACGAUCGGCCCCCUCCAGUGAGCUCACGUUGCUUGUUGACACGAGCACUUGGAUGCCCUGGCGUCUCCACUCCCGAAUGUGCUUGGCUUGGUAGCCGGUGCGGAUUCCAGAUCGGGAAGUCAGCACCAACAGAGGAUUGAGCAUCA
B3: chr14:102368134:102368135:+_ENSG00000078304_ENST00000445439|hu_hu|hu_hu_hu_mus_True|68_78 (ssRNA)
RNA: GGGAGUUCUACAGUCCGACGAUCAAGAGGCUCCAUGAUCUUCACAAACUCUGAUGGUUCAAUGACAUCUAAAAUCUCUUCUAAUUCAUUUAAGAACAUUACUUCUUUUGGACUGUGAGUCUUUGGCCAGUAUUUGAGAAGUGCCAACAGAGGAUUGAGCAUCA
B4: chr17:45747064:45747065:+_ENSG00000108424_ENST00000290158|hu_hu|hu_hu_hu_mus_True|28_98 (ssRNA)
RNA: GGGAGUUCUACAGUCCGACGAUCGCCCACAGUCCACGCAGCUGUAUCUCGAACAACUACACUGGGGUCUUUCAUUAGUUCUAUUAGGGUGGGCAUAGCCUGUAUGACUAGUGGUUUCAGUUGAUUAGGCUCUGGUCCUUCCAACAACAGAGGAUUGAGCAUCA
B5: 104830079_104830199_188_5pUTR_ENSMUSG00000028517_ENSMUST00000064139|mouse|control|control (ssRNA)
RNA: GGGAGUUCUACAGUCCGACGAUCUGCCCCGGACGCGUCCGGCUGGCGUGCGUCUGCGUGCUGGAGUUUGCGAGUGGGCAGCGUCGGCGUCCCGCCACGAUCCUCCGCAGCUACUUAAUGAAUGGAGCAGCGCGGAGCCCUGCACAACAGAGGAUUGAGCAUCA
B6: chr19:8913615:8913616:-_ENSMUSG00000071658_ENSMUST00000096259|mus_hu|mus_mus_mus_hu_False|58_78 (ssRNA)
RNA: GGGAGUUCUACAGUCCGACGAUCAGGGUACCAAAACCUUCUGCCUGAAAUGGGUGCCCCACCCUGCAGGGAGUUGCAGCUAAAAAUAUCUGAUGCAGAAGCAGUGACUAUACGAAAGGAGGCCCCUGGGGAGGGCCAGGCCAGCAACAGAGGAUUGAGCAUCA
B7: 130609336_130615730_1729_3pUTR_ENSMUSG00000031256_ENSMUST00000033609|mouse|control|control (ssRNA)
RNA: GGGAGUUCUACAGUCCGACGAUCCCUUCUCAUGAUCCUGGGGUGUGACUUGGCUCUGUCCAGGACUAAAGCCACCAGGCUGGCUUCCACCUUGCAUGCUUGCUCCUUGCAUGCCUGCUCCCUGCAUGACUGGUACCUGUCUGGCAACAGAGGAUUGAGCAUCA
B8: chr10:112764417:112764418:+_ENSG00000108061_ENST00000369452|hu_hu|motif|central (ssRNA)
RNA: GGGAGUUCUACAGUCCGACGAUCGAUGGUAGAAAACUGAGAUGGACCACCCACUGGAUACAACUGGAAGCAAUUUCGGGCGGAGGUCAAACUAUUCAGUUUCACAAGACUUGAUAAAAGACUCUCUGGUAAAGUAGAAAUGUUCAACAGAGGAUUGAGCAUCA
B9: 31665681_31665801_2464_3pUTR_ENSG00000169926_ENST00000307145|human|control|control (ssRNA)
RNA: GGGAGUUCUACAGUCCGACGAUCCCUGGAGCCUCCAGGCAGGACAAGGAGAAGCAGGAGGAAAAGGGAGGAGGAGUCCAGGGGAAACGGAGAGGCUGGAGGUUUGCUAAGUCUGAGUUGGGGACAUGGUGGGUCUGAGAAAAGCAACAGAGGAUUGAGCAUCA
B10: chr1:174973770:174973771:+_ENSG00000116161_ENST00000406752|hu_mus|FALSE|FALSE (ssRNA)
RNA: GGGAGUUCUACAGUCCGACGAUCGAGUUCCGUCUCAAUCUUGGACUUUUCACUUGUAAGAGUAUCACGUAGUCUUUUCCUAGUGGACUUUUCCAGCAAUACUUUGACCUCUUCUAGGUCUUUCUGCAACUCUUCCAAAACGGACAACAGAGGAUUGAGCAUCA
B11: chr17:80203902:80203903:-_ENSG00000141551_ENST00000269361|hu_hu|motif|central (ssRNA)
RNA: GGGAGUUCUACAGUCCGACGAUCAGUGCUGCCUUCCGAUGGGAGACGAGCAGCUACUUGCCGUGGUGUUCGAAAGGAAUGCGGUUCUGUGAGGUGGACAUGCGAGAGGUAUCUUGUCGGCCUGUGAGGUCGGACGAGGAGAUGCAACAGAGGAUUGAGCAUCA
B12: chr5:128440902:128440903:+_ENSG00000066583_ENST00000173527|hu_mus|hu_hu_hu_mus_True|68_108 (ssRNA)
RNA: GGGAGUUCUACAGUCCGACGAUCUUGAACCGUGCUCCCAAGUCCUUUGGGGUAUUGUUCCGUUAUGAUAACAGGAAUCCCUAAGAUCCGAGCUCCUUGCAACAGUCUCUGUCCCACACUAAUGAUGUCCCCAAAGUAUUUGAUCAACAGAGGAUUGAGCAUCA
B13: chr11:100581416:100581417:-_ENSMUSG00000019173_ENSMUST00000107364|mus_mus|FALSE|FALSE (ssRNA)
RNA: GGGAGUUCUACAGUCCGACGAUCCCCGCCAUGGCGCGCUGCUCUGUAGUAGUACCAGUGAGCGUGGGGGUGGGGCCGGUGCUAUGCAAAGAGGCACUUAAUGGGAAGGGAGGCCUCCAACGCGGCUCCGGGCAGCAGCGUUACCAACAGAGGAUUGAGCAUCA
B14: chr8:79514811:79514812:+_ENSG00000171033_ENST00000352966|hu_mus|FALSE|FALSE (ssRNA)
RNA: GGGAGUUCUACAGUCCGACGAUCAGAUACUAAGACUGAACUCAGGCAAUAUUCACAUUCAUGGAUAUUUCCACAUGCCUGUAUAAUAAAGCAAAGUGGGCUCAGUGAGUCUAGUGGAUGUAACCCUCGGCAGUUAUCAAGAGGCAACAGAGGAUUGAGCAUCA

biological target: T1, UNK ZnF1-3; assay: nsRBNS (natural sequence RNA bind-n-seq); RBNS binding buffer (assumed for nsRBNS): 25 mM Tris pH 7.5, 150 mM KCl, 3 mM MgCl2, 0.01% Triton X-100, 500 ug/ml BSA, 20 U/ml SUPERase-In, 4 C; UNK is unkempt and MSI1 is Musashi-1; names of the RNAs are library labels; protein concentration not given here; high values mean tight binding

| Binder | binding signal [enrichment R] |
| --- | --- |
| B1 | 0.798 |
| B2 | 0.707 |
| B3 | 0.706 |
| B4 | 0.661 |
| B5 | 0.74 |
| B6 | 1.81 |
| B7 | 0.581 |
| B8 | 1.3 |
| B9 | 2.42 |
| B10 | 0.405 |
| B11 | 0.931 |
| B12 | 0.776 |
| B13 | 1.05 |
| B14 | 0.712 |
